Source: PubChem BioAssay AID504706 (National Center for Advancing Translational Sciences (NCATS), 2011)
In all, about 320,000 compounds went through this assay and about 200 (0.062%) were called active. Inconclusive means that the source gave no clear call. Such entries were picked first, then a sample of the others. The call rests on the fitted dose curve; in most records, active means well fitted activation curve with a large enough effect; inconclusive means small, poorly fitted or top-dose-only effect; inactive means no such curve, though single readings can be large or run the other way. No potency is given beside an inconclusive call; the fits are too rough.

test: qHTS assay for re-activators of p53 using a Luc reporter; conditions: H1299 p53-A138V BP100-luciferase reporter, luminescence, 24 h; series mostly up to 92.2 µM; activity change, positive = activation: at the top concentration; further: nearly all actives have a fitted effect of over 45% in size; on activity change, positive = activation: % of control where 0% means no effect
How it was run: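 p53-null H1299 cells stably carrying temperature-sensitive p53-A138V and a BP100-luciferase reporter were pinned with compounds (4-point, 1:5 series) and held 24 hrs at 37 deg C. Luminescence was read 10 min after detection reagent.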
Potency means the concentration at half of the fitted maximal effect; tags describe the fitted curve by direction and shape.

Row | SMILES | Potency | activity change, positive = activation
1 | CN(CC(=O)Nc1ccc(F)cc1)C(=O)COC(=O)c1cccc(N(C)C)c1 | inconclusive [activator, full curve, poor fit] | 
2 | Cc1cccc(-c2cc3nc4c(c(N5CCOCC5)n3n2)CCCC4)c1 | inconclusive [activator, partial curve, poor fit] | 
3 | Cc1ccc2nc(SCC(=O)NCCCN3CCCC3=O)[nH]c2c1 | inconclusive [activator, single point] | 
4 | CC(C)(C)c1ccc(C(=O)CC(=O)c2cc(Cl)ccc2O)cc1 | inconclusive [activator, partial curve, poor fit] | 
5 | Nc1nc2ccc(Cc3ccncc3)cc2s1 | inconclusive [activator, full curve, poor fit] | 
6 | CCCOc1ccc(-c2cnc(N)s2)cc1 | inconclusive [activator, single point] | 
7 | Cc1ccc(-c2nnn(CC(=O)N(CC(=O)NC3CCCC3)c3cccc(F)c3)n2)o1 |  | inactive: -3.92%
8 | COc1cccc(NCc2cc(=O)oc3cc(-c4ccccc4)c(O)cc23)c1 | inconclusive [activator, partial curve] | 
9 | Oc1cccc(Nc2nc(-c3ccccc3Cl)nc3ccccc23)c1 |  | inactive: -3.06%
10 | O=C(/C=C/c1ccco1)Oc1cc(Br)cc(/C=N/NC(=O)c2ccccc2O)c1 | inconclusive [activator, partial curve, poor fit] | 
11 | Nc1nc(-c2ccc3c(c2)CCCC3)cs1 | inconclusive [activator, partial curve, poor fit] | 
12 | COc1ccc(S(=O)(=O)N(C)C[C@H]2Oc3ccc(NC(=O)Nc4ccc(C(F)(F)F)cc4)cc3C(=O)N([C@H](C)CO)C[C@@H]2C)cc1 |  | inactive: 7.76%
13 | Cc1ccn2c(NC3CCCC3)c(-c3ccccn3)nc2c1 | inconclusive [activator, partial curve, poor fit] | 
14 | COC(=O)c1ccc(NC(=O)COc2ccc([N+](=O)[O-])cc2)cc1 | inconclusive [activator, full curve] | 
15 | Cc1ccc2nc(NC(=O)C3CCN(S(=O)(=O)c4cc([N+](=O)[O-])ccc4Cl)CC3)sc2c1 | inconclusive [activator, partial curve, poor fit] | 
16 | O=c1c(-c2nc3ccccc3o2)c2oc3ccccc3n2c2ccccc12 |  | inactive: 5.38%
17 | COc1ccc(CCNc2cc(C)nc3c(-c4ccccc4)cnn23)cc1OC | inconclusive [activator, full curve, poor fit] | 
18 | CC(C)(C)c1ccc(C(=O)Nc2ccc(C(=O)NCc3cccnc3)cc2)cc1 |  | inactive: 2.43%
19 | CC(C)COC(=O)c1ccc(NC(=O)C2C3CCC(C3)C2C(=O)O)cc1 (stereo unspecified) | inconclusive [activator, partial curve, poor fit] | 
20 | Cc1ccc(NC(=O)c2snc3c(=O)[nH]cnc23)cc1C |  | inactive: 5.66%
21 | O=C(NCC1CCCO1)c1cc2ccccc2o1 (stereo unspecified) | inconclusive [activator, partial curve, poor fit] | 

Row | SMILES | Potency | activity change, positive = activation
22 | Cc1ccc2nc(NC(=O)C3CC3C)sc2c1 (stereo unspecified) | inconclusive [activator, full curve, poor fit] | 
23 | CN(C)c1ccc(/C=N/n2ncc3ccccc32)cc1 | inconclusive [activator, partial curve, poor fit] | 
24 | CC(=O)Nc1ccc(C(=O)OCCc2ccccc2)cc1 | inconclusive [activator, full curve, poor fit] | 
25 | C/C(=N\NC(=O)c1nn(C)cc1Br)c1ccncc1 | inconclusive [activator, single point] | 
26 | COc1ccc([C@H]2CC(=O)C=C(c3ccc(Cl)cc3C)C2)cc1 | inconclusive [activator, partial curve, poor fit] | 
27 | O=C(Cn1cnc2ccccc2c1=O)Nc1ccc2c(c1)OCO2 | inconclusive [activator, partial curve, poor fit] | 
28 | Cc1ccc(SC2=C(Sc3ccc(C)cc3)C(=O)c3ccccc3C2=O)cc1 | inconclusive [activator, full curve, poor fit] | 
29 | COc1ccccc1C(=O)NCC(=O)n1nc(C)cc1C | inconclusive [activator, single point] | 
30 | CCOC(=O)N1CCN(C(=O)c2cc(COc3ccc(F)cc3F)on2)CC1 | inconclusive [activator, single point] | 
31 | Nc1nc(N2CCN(C(=O)c3ccco3)CC2)nc2ccccc12 | inconclusive [activator, partial curve, poor fit] | 
32 | Cc1cc(C)n(-c2ccc(C(=O)N3CCc4ccccc43)cc2)n1 | inconclusive [activator, partial curve, poor fit] | 
33 | COc1ccc(CN2CCN(CCCc3ccccc3)C(CCO)C2)c(O)c1 (stereo unspecified) | inconclusive [activator, single point] | 
34 | O=C(Nc1nnc(-c2ccccc2)o1)c1cc(-c2cccs2)nc2ccccc12 | inconclusive [activator, single point] | 
35 | O=C(Nc1ccc(-c2cn3ccsc3n2)cc1)C1CC1 | inconclusive [activator, partial curve, poor fit] | 
36 | COc1ccccc1CN1CC(C(=O)NC2(c3ccccc3)CC2)CCC1=O (stereo unspecified) | inconclusive [activator, single point] | 
37 | CCCC(=O)N(CCN(C(=O)CCC)c1ccccc1)c1ccccc1 |  | inactive: -5.5%
38 | Cc1cc[n+](CC(=O)c2cc3ccccc3oc2=O)cc1 | inconclusive [activator, partial curve, poor fit] | 
39 | Cc1cc(=O)oc2cc(NC(=S)NNC(=O)c3c(Cl)cnn3C)ccc12 | inconclusive [activator, full curve] | 
40 | COc1c(C(=O)NCCSC(C)(C)C)ccc2ccccc12 |  | inactive: 26.9%
41 | COc1cnc(SCc2ccc(Cl)cc2Cl)nc1Cl | inconclusive [activator, single point] | 
